Test results: PubChem BioAssay AID624296 (National Center for Advancing Translational Sciences (NCATS), 2012)
Hit rate of the full screen: of about 350,000 compounds, about 9,900 (2.8%) were called active. Inconclusive results, whose numbers are uncertain, are shown with a selection of clear calls. Calls come from the whole dose curve; as a rule, active = well fitted activation curve with a large enough effect; inconclusive = small, poorly fitted or top-dose-only effect; inactive = no such curve, though single readings can be large or run the other way. No potency is given beside an inconclusive call; the fits are too rough.
Potency is the fitted concentration of half-maximal effect; tags give direction and shape of the fitted curve.

Assay: A quantitative high throughput screen for small molecules that induce DNA re-replication in MCF 10a normal breast cells. For activity, positive = re-replication: % of control where 0% means no effect. Note: nearly all actives have a fitted effect of over 50% in size.
Settings: MCF 10A DNA re-replication, Hoechst nuclear intensity, 48 h; activity, positive = re-replication: at 46.1 µM (top of the series)
In the case of `C=C1C(O)C[C@@H](C(C)C)N(CC(C)C)S1(=O)=O` (some centres undefined), the Potency is reported as inconclusive [activator, single point].
In the case of `O=c1ccn(CCOc2ccc(Cl)cc2)c(=O)[nH]1`, the Potency is reported as inconclusive [activator, single point].
For `CC(C)CC(COCc1ccc([N+](=O)[O-])cc1)N1CCN(C(=O)c2ccc(C(F)(F)F)cc2)CCC1=O` (centres undefined), the Potency was inconclusive [activator, single point].
In the case of `O=C(c1ccc2c(c1)OCO2)N(Cc1cccs1)C1(C(=O)NC2CCCCC2)CCCCC1`, the Potency is reported as inconclusive [activator, single point].
For `Cc1cccc(CSCc2ccc(C(=O)NC(C)C)o2)c1`, the “activity, positive = re-replication” value was inactive: 4.48%.
With `Cc1cc(=O)n(C(C)Cc2ccccc2)n1C(C)Cc1ccccc1` (centres undefined) the “activity, positive = re-replication” value was inactive: -3.54%.
For `COc1cccc(/C=N/n2c(SC)nnc2-c2ccccc2)c1OC`, the Potency was inconclusive [activator, partial curve, poor fit].
For `Cc1cccc(OCc2nnc(N)s2)c1`, the Potency was inconclusive [activator, partial curve, poor fit].
With `CC(C)c1ccc(-n2cccc2/C=C2/C(=N)N3C=CSC3=NC2=O)cc1` the Potency was active: 23.1 µM.
With `O=c1[nH]c(COc2ccccc2)nc2ccccc12` the Potency was inconclusive [activator, single point].
With `Cc1cc2oc(=O)cc(CN3CCc4ccccc43)c2cc1Cl` the Potency was inconclusive [activator, single point].
With `CS(=O)(=O)N1CCC(C(=O)Nc2cccc([N+](=O)[O-])c2)CC1` the Potency was inconclusive [activator, single point].
With `COc1ccccc1N(C)S(=O)(=O)c1ccc(C(=O)Nc2nc(C)cs2)cc1` the Potency was inconclusive [activator, single point].
For `Cc1ccc(F)cc1NC(=O)N1CCN(c2ccnc3cc(Cl)ccc23)CC1`, the Potency was inconclusive [activator, single point].
In the case of `CCCC(=O)N1CCc2cc(OC)c(OC)cc2C1c1cc2cc3c(cc2[nH]c1=O)OCO3` (centres undefined), the Potency is reported as inconclusive [activator, single point].
In the case of `CC(=O)c1cccc(NC(=O)N2CCC(NC(=O)C3CCCCC3)CC2)c1`, the “activity, positive = re-replication” value is reported as inactive: -0.0332%.
In the case of `Cc1nnc(N/N=C/c2ccc(-c3ccccc3F)o2)n1N`, the Potency is reported as inconclusive [activator, single point].
With `C=CCn1c(C)cc(C(=O)CSc2nnc(NC(C)C)s2)c1C` the Potency was inconclusive [activator, partial curve, poor fit].
For `O=C(OCC(=O)N1CCN(c2ccccc2)CC1)c1ccncc1`, the Potency was inconclusive [activator, full curve, poor fit].
For `CSc1ccc(C2=C/C(=C3/SC(=S)NC3=O)c3ccccc3O2)cc1`, the “activity, positive = re-replication” value was inactive: 1.98%.
For `N#CNC(=Nc1cccc(F)c1)SCc1ccccc1F`, the Potency was active: 4.61 µM.
With `O=S(=O)(CCc1nc2ccccc2[nH]1)c1ccc(Br)cc1` the Potency was inconclusive [activator, single point].
For `N#CCCn1cc(/C=N/N=C2\NC(=O)C(CC(=O)O)S2)c(-c2ccc(F)cc2)n1` (centres undefined), the “activity, positive = re-replication” value was inactive: 28.7%.
With `COc1cc(Cl)ccc1OCc1cc(C(=O)NCC(C)(C)N2CCOCC2)no1` the Potency was inconclusive [activator, partial curve, poor fit].
For `CC(C)(C)OC(=O)NCc1ccc(CNC(=O)c2[nH]cnc2C(=O)NC2CCN(C(=O)OC(C)(C)C)CC2)cc1`, the Potency was active: 18.4 µM.
For `CCOC(=O)c1cc(C)[nH]c1C`, the Potency was inconclusive [activator, full curve, poor fit].
For `CCOC(=O)c1c(N2C(=O)C=CC2=O)sc(C)c1C`, the Potency was active: 2.91 µM.
With `O=C1C(C2=NC(c3ccccn3)C3C(=O)N(c4ccc(Cl)cc4Cl)C(=O)C23)=C(O)c2ccccc21` (centres undefined) the Potency was inconclusive [activator, single point].
For `COc1ccc(Cl)cc1C(=O)Nn1c(C)nc2ccccc2c1=O`, the Potency was inconclusive [activator, partial curve, poor fit].
With `COc1ccc2c(-c3ccccc3)cc(SC(C)C(N)=O)nc2c1` (centres undefined) the Potency was inconclusive [activator, partial curve].
In the case of `O=C(CN1CCN(C2CCCCC2)CC1)Nc1ccccc1N1CCCCC1`, the Potency is reported as inconclusive [activator, full curve, poor fit].
With `O=C(CCC(=O)c1cccs1)OCc1ccc([N+](=O)[O-])cc1` the “activity, positive = re-replication” value was inactive: 0.134%.
For `COc1ccc2sc(-c3ccc(S(C)(=O)=O)cc3)c(C(=O)NCCc3c[nH]c4ccccc34)c2c1`, the Potency was inconclusive [activator, full curve].
With `CN(C(=O)COC(=O)c1ccccc1OCc1ccc(Cl)cc1)c1c(N)n(Cc2ccccc2)c(=O)[nH]c1=O` the Potency was inconclusive [activator, single point].
For `O=C(/C=C/c1ccc(F)cc1)N1CCN(S(=O)(=O)/C=C/c2ccccc2)CC1`, the Potency was inconclusive [activator, single point].
For `O=C(CNC(=O)c1ccccc1F)NCCOc1cccc(Cl)c1Cl`, the Potency was inconclusive [activator, single point].
With `Cc1cc(C)cc(C(=O)N(C)C2CCCN(Cc3ccccc3F)C2)c1` (centres undefined) the Potency was inconclusive [activator, partial curve, poor fit].
With `Cn1nnnc1SC(C(=O)Nc1cccc(C(F)(F)F)c1)c1ccccc1` (centres undefined) the Potency was inconclusive [activator, partial curve, poor fit].
For `CCn1cc(C(=O)NCCC(=O)NCCCO)c(=O)c2cc3c(cc21)OCO3`, the “activity, positive = re-replication” value was inactive: 2.08%.
In the case of `COc1ccc2c(c1)C1=NN(/C(C)=C/C(C)=O)C(c3cccc(F)c3)C1CC2` (centres undefined), the Potency is reported as inconclusive [activator, single point].
With `COc1ccc(C2CC(c3ccc(C(F)(F)F)cc3)=NN2c2ccc(S(N)(=O)=O)cc2)cc1` (centres undefined) the Potency was inconclusive [activator, full curve, poor fit].
For `COC(=O)c1c(-c2ccncc2)csc1NC(=O)c1ccoc1C`, the Potency was inconclusive [activator, partial curve, poor fit].
For `CCOC(=O)CN=C1CC(C)(C)CC2=C1Sc1ncnc(N(C)C)c1N2`, the Potency was inconclusive [activator, partial curve].
For `CCCC(=O)c1ccc2c(c1)OCCO2`, the “activity, positive = re-replication” value was inactive: -7.56%.
For `COc1cc(C(=O)Nc2nnc(-c3sccc3C)s2)cc(OC)c1OC`, the Potency was inconclusive [activator, full curve, poor fit].
For `Cc1cc(C)n(CC(=O)O)n1`, the “activity, positive = re-replication” value was inactive: 0.797%.
In the case of `Cn1nnnc1SCC(=O)N1CCN(Cc2ccccc2)CC1`, the Potency is reported as inconclusive [activator, partial curve, poor fit].
With `COC(=O)CCCN1C(=O)c2cccc3cccc(c23)C1=O` the Potency was inconclusive [activator, single point].
With `O=C1NC(=O)/C(=C/c2ccccc2Oc2ccc(Cl)cc2)S1` the Potency was inconclusive [activator, single point].
With `O=C(OC1C[C@H]2CC[C@@H](C1)[N+]21CCCC1)C(O)(c1ccccc1)c1ccccc1` (some centres undefined) the “activity, positive = re-replication” value was inactive: -2.86%.
For `COc1ccc(C2CC3(CC(C)(C)NC(SC)=N3)Oc3cc(O)cc(C)c32)cc1` (centres undefined), the Potency was inconclusive [activator, single point].
With `CCOC(=O)CC1C(=O)NCCN1C(=O)c1cccc(OC)c1` (centres undefined) the “activity, positive = re-replication” value was inactive: 1.19%.
For `COc1cc(C(=O)Nc2c(C(=O)O)[nH]c3ccc(C)cc23)cc(OC)c1OC`, the Potency was inconclusive [activator, partial curve, poor fit].
With `CCN1CCN(S(=O)(=O)c2ccc(Cl)c(C(=O)Nc3cc(Cl)ccc3N3CCOCC3)c2)CC1` the Potency was inconclusive [activator, partial curve, poor fit].
In the case of `O=C(/C=C/Sc1ccc(C(F)(F)F)cn1)c1ccccc1`, the Potency is reported as inconclusive [activator, partial curve, poor fit].
For `Cc1c(Cc2ccccc2)c(=O)oc2cc(O)cc(O)c12`, the Potency was inconclusive [activator, single point].
In the case of `CC(C)N(Cc1nc(-c2ccc(Cl)cc2)no1)C(=O)c1cccs1`, the Potency is reported as inconclusive [activator, single point].
In the case of `CC1(C)CC(=O)CC2(C1)NCC(c1ccccc1Cl)c1c2[nH]c2ccccc12` (centres undefined), the Potency is reported as inconclusive [activator, single point].
With `Cc1ccc(C(=O)NNC(=O)c2cc3cc4ccccc4nc3s2)cc1` the Potency was inconclusive [activator, single point].
For `Cc1[nH]c2ccccc2c1C(C#N)(C#N)C1C(=O)c2ccccc2C1=O`, the Potency was inconclusive [activator, single point].
For `COc1ccc2cc1Oc1ccc(cc1)CC1c3c(cc(OC)c4c3Oc3cc5c(cc3O4)CCNC5C2)CCN1C` (centres undefined), the Potency was inconclusive [activator, single point].
With `CCN(Cc1ccccc1)S(=O)(=O)c1ccc(C(=O)N(CCCN(C)C)c2nc3ccc(F)cc3s2)cc1` the “activity, positive = re-replication” value was inactive: 5.98%.
In the case of `CCN1CCN(C(=O)CN(c2ccc(F)c(Cl)c2)S(C)(=O)=O)CC1`, the Potency is reported as inconclusive [activator, partial curve, poor fit].
In the case of `Cc1ccc(NC(=O)c2nc[nH]c2C(=O)NCCN(CCNC(=O)c2[nH]cnc2C(=O)Nc2ccc(C)cc2)CCNC(=O)c2[nH]cnc2C(=O)Nc2ccc(C)cc2)cc1`, the “activity, positive = re-replication” value is reported as inactive: -6.57%.
